Sequences with one replicate were seen in a single cluster, so their values are uncertain.
Test system: ATP
Experiment: switch fluorescence ratio, 500 uM ATP over buffer (Cy3 cluster intensity, sum of 5 cycles each) (fold (ratio)); higher = stronger signal-on switching upon ATP binding; sequences stand for … in TCGTCGGCAGCGTCAGATGTGTATAAGAGACAGTTTTTTTTTTTTTTTTTTTTTTTTT…TC
Conditions: aptamer strand: ATP DNA aptamer (quencher-CACCTGGGGGAGTATTGCGGAGGAAGG + anchor), 100 nM annealed; ATP concentration: 500 uM; one replicate
Summary of the method: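 Cy3-labelled switching-strand clusters on a modified Illumina MiSeq flow-cell were annealed to 100 nM quencher-labelled ATP aptamer and imaged first in selection buffer, then after 15 min with 500 uM ATP at 22 °C. NaOH stripping and re-annealing separated each of five buffer/ATP cycles, and clusters outside 100-1000 RFU were excluded. The fluorescence ratio sums target-cycle Cy3 intensity over buffer-cycle Cy3 intensity per cluster and averages it per switch-domain sequence.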
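Note: ATP exposure 15 min at 22 °C before imaging.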

| Sequence | switch fluorescence ratio |
| --- | --- |
| GCTTCTATAC | 1.9 |
| GTCTCGCATG | 1.1 |
| TGGAGTTCCG | 0.98 |
| ACCAAACCTT | 2.64 |
| GACATCTGGA | 1.04 |
| GGTGCAGCC | 0.991 |
| GATCTCTTCT | 1 |
| AGTCGCGGCA | 1.04 |
| GCGATCGTTA | 1.01 |
| ATCAAGGCCA | 1 |
| TATAGCTACG | 0.998 |
| ACCTCCTATA | 1.21 |
| TCGGGTACAC | 0.986 |
| TATGTGTCGC | 1 |
| GGCTCACATC | 0.995 |
| ATTGAGATAC | 1.04 |
| TGCCGGTCGA | 0.968 |
| CCGCCAAATA | 3.29 |
| ACGGACGCCG | 0.999 |
| TAACTCGTCC | 0.974 |
| AAGTATTCGG | 1.01 |
| AAGGTTAGGA | 1.03 |
| CAGCACGGGC | 1.03 |

| Sequence | switch fluorescence ratio |
| --- | --- |
| TTTTCAAGGC | 1.02 |
| CTGTTCGTTT | 0.964 |
| CGAATCGCCG | 1.03 |
| TATTCAAGCT | 1.02 |
| TTGGCAACCG | 1.05 |
| TATCCTCATC | 1.02 |
| TTCATCAAGC | 1.1 |
| TTCGGCCCGG | 0.997 |
| GGAGCAACGG | 1.4 |
| CGGCCCTTAC | 3.2 |
| GAAGTATATC | 1.07 |
| AGAGTAAAAC | 1.03 |
| TTGTTCATGC | 0.974 |
| TTAAATGTAG | 1 |
| GCAAGCTTAA | 1 |
| TGCAACAAAT | 0.96 |
| CTGGCGGGAG | 0.997 |
| ATACCAAATG | 1.02 |
| TAAGGTTACC | 0.972 |
| GGTCCACGTC | 0.938 |
| TGAGAATTGG | 0.984 |
| TTGGATGGGC | 1.04 |
| CTAAACACAC | 1.23 |

| Sequence | switch fluorescence ratio |
| --- | --- |
| CGTTCTGTGC | 1.03 |
| TCCTCCTTAT | 1.13 |
| TGGGGCCTAC | 0.991 |
| ATTAGCGACC | 1.13 |
| TCGGCGTGTT | 0.971 |
| GATATGGGAT | 1 |
| GCCAGCATGC | 1.12 |
| GATTCTCTCG | 1.01 |
| GTTTGCTCGT | 1.03 |
| CCGATAGGT | 1.02 |
| GTCTTGCCGT | 1.03 |
| TGGAAGTCGT | 0.999 |
| CTCCCCGGCC | 1.49 |
| ACTACATCGA | 1.03 |
| ATCGGTAACG | 0.982 |
| CTATGCAAGG | 1.49 |
| CAGACCTATT | 1.03 |
| ATGCAAAAA | 1.01 |
| TCCACTTTCG | 1.01 |
| TCTTATTGTT | 1 |
| AACAAAGGAG | 1.03 |
| TCGTGGGATG | 1.12 |
| AAAAAGGCGG | 1 |

| Sequence | switch fluorescence ratio |
| --- | --- |
| AGAAGTAAAG | 1.04 |
| ACGCATCTCT | 1.56 |
| GGGAAAGTTG | 0.95 |
| TAGGTTTCCG | 1.01 |
| ATGAGCGTTG | 0.971 |
| AGCGCCGAGC | 0.997 |
| ACGTCGCCT | 0.992 |
| GCAGCTGCTC | 0.978 |
| TCGTCGTTCT | 0.997 |
| CGTGCAGCGC | 1.05 |
| AGCGAGTCGG | 1.03 |
| TGTACCCTCG | 1.02 |
| CTGTCCGATA | 1.07 |
| TACGTCCGAA | 1.07 |
| GTCGGACGAG | 1.01 |
| TTAAGGCTCT | 1 |
| CTTTGCCGTC | 0.979 |
| GGACTCCTTA | 0.984 |
| CGGTAGCACG | 0.981 |
| GGAATATCGA | 0.985 |
| TGCCAGCGTC | 1.03 |
| AGTCGTGACA | 0.996 |
| TTGGCGACGC | 1.01 |

| Sequence | switch fluorescence ratio |
| --- | --- |
| AATGTGGAAT | 1.04 |
| GGTTATGCGA | 1.02 |
| GGAAAATTAC | 1.02 |
| GTGCGTAGTG | 1.01 |
| ACGGACAGCA | 1.19 |
| GCTTCGCCTC | 1.55 |
| TAAGACCCAT | 1 |
| TGTGCAAACA | 1 |
| ATTAGAATTG | 0.998 |
| CGGGCGCATG | 1.02 |
| TATTGGTAA | 1.01 |
| TATTACCGTG | 0.994 |
| TTATACTAAA | 1.01 |
| TAGCCAGGCG | 1.62 |
| AGGTCCAAAG | 1.04 |
| AAAGGTGTAA | 0.997 |
| GTCTCAAGCG | 0.952 |
| ATACCGTGTA | 0.962 |
| TGATTGCCGT | 1 |
| CGTTGGTGA | 0.988 |
| TTCATTGTA | 0.993 |
| ATGAGTCAGG | 1.03 |
| AGACTCATCA | 0.947 |

| Sequence | switch fluorescence ratio |
| --- | --- |
| TGTTTTTGTC | 1.08 |
| TTGTTACAGC | 1.04 |
| GTCTGAAAAT | 0.991 |
| TAGGAGATTA | 1.01 |
| TATTCGTCAC | 0.995 |
| GGGTTTTGAG | 0.985 |
| TCGTATAGGC | 1.04 |
| GGAAGGGGTC | 1.06 |
| TGTCCGCGCT | 2.46 |
| GTGGGGCGGC | 0.995 |
| GTCATAGTTG | 0.986 |
| GAAATACTAG | 1.05 |
| GTGGATCACG | 1 |
| TAGATGCTGA | 0.982 |
| GCATCGGCGC | 1.01 |
| GACATGGCTA | 0.98 |
| CGGTCCTGA | 1 |
| CGTTGACTGC | 1.07 |
| TTACGAGGTG | 1.08 |
| ATTACAGCTC | 1.06 |
| CGAATCGCCC | 1.08 |
| CTTGTCAATA | 1.3 |
| ACAGTGGTTA | 1.01 |

| Sequence | switch fluorescence ratio |
| --- | --- |
| GCAAGTCGGT | 1.01 |
| TCTATGCATA | 1.18 |
| AGTAATAGA | 0.987 |
| GGTCGAGTGC | 0.983 |
| GAAAATAAAT | 1.01 |
| CTGAGTTGGC | 0.953 |
| GATAGTTGGC | 1.12 |
| GATGGCCAGT | 1.14 |
| CATTAGGGTG | 1.08 |
| GTTCCGTG | 1.02 |
| TTCGGAGGTA | 0.993 |
| GAACCCCTTT | 1.07 |
| ATCTTCTCGA | 0.992 |
| GAGTGAAAAT | 1.01 |
| TCTAAGTGGC | 1.03 |
| TTTTTTGACA | 1 |
| AGCTTTTCTC | 1.02 |
| TATCAAACTT | 1.09 |
| ATGTCTGGTG | 1.04 |
